Laboratory results taken from the antibiotic and cytotoxicity screens of Wong et al. (2023).
The other results are listed elsewhere or left out.

These molecules were tested on S. aureus RN4220 (assay: growth inhibition call (relative growth <= 0.2)). Details: 50 µM.

| SMILES | growth inhibition call |
| --- | --- |
| C[C@@H]1CN([C@@H](C)CO)C(=O)Cc2cc(NS(=O)(=O)c3cn(C)cn3)ccc2O[C@H]1CN(C)C(=O)Nc1ccc2c(c1)OCO2 | inactive |
| C[C@H](CO)N1C[C@H](C)[C@@H](CN(C)C(=O)c2ccccc2)OCCCC[C@H](C)Oc2ccc(NC(=O)Nc3ccc(F)cc3)cc2C1=O | inactive |
| CCN(CC)CCOC(=O)C1(C2CCCCC2)CCCCC1.Cl | inactive |
| CO[C@H]1C[C@H](O[C@H]2[C@H](C)[C@@H](O[C@H]3O[C@H](C)C[C@H](N(C)C)[C@H]3O)[C@@H](C)C[C@]3(CO3)C(=O)[C@H](C)[C@@H](O)[C@@H](C)[C@@H](C)OC(=O)[C@@H]2C)O[C@@H](C)[C@@H]1O | active |
| COc1ccc(S(=O)(=O)Nc2ccc3c(c2)C(=O)N([C@H](C)CO)C[C@H](C)[C@@H](CN(C)S(=O)(=O)c2cn(C)cn2)OCCCC[C@@H](C)O3)cc1 | inactive |
| Cc1noc(C)c1NC(=O)N(C)C[C@@H]1Oc2ccc(NS(=O)(=O)c3ccccc3)cc2C(=O)N([C@H](C)CO)C[C@@H]1C | inactive |
| NCc1cnco1 | inactive |
| C[C@H](CO)N1C[C@H](C)[C@H](CN(C)Cc2ccncc2)Oc2ccc(NC(=O)Nc3cccc4ccccc34)cc2CC1=O | inactive |
| C[C@H](CO)N1C[C@H](C)[C@@H](CN(C)S(=O)(=O)c2ccc(F)cc2)OCCCC[C@H](C)Oc2ccc(NC(=O)Cc3ccccc3)cc2C1=O | inactive |
| COc1ccc([C@H]2C/C=C\C[C@@H](c3cccc(Cl)c3)NC(=O)[C@H](c3ccccc3)CC(=O)N2)c(OC)c1 | inactive |
| CO[C@@H]1CN(C)C(=O)c2cc(NS(C)(=O)=O)ccc2OC[C@@H](C)N(C(=O)CN(C)C)C[C@@H]1C | inactive |
